The supplement of paper PMC11417369
The list shows a part of the results.

Each sequence was assayed on PfAP2-HC AP2 domain (GST-tagged) (assay: gcPBM binding intensity (ln(normalized median fluorescence intensity)); higher = stronger DNA binding).
Procedure, shortened: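 Binding intensity is defined as the maximum Masliner-normalised natural-log median intensity across replicate spots for either probe orientation. It was measured on an Agilent 4 × 180k array of primer-extended double-stranded 36-bp intergenic genomic probes and negative controls, to which GST-tagged P. falciparum DNA-binding domains made in E. coli were applied for 1 h in 1× PBS with 1% milk, 0.2 mg/ml BSA, 0.5% salmon testes DNA and 0.03% Triton X-100. Detection was by Alexa488 anti-GST antibody and scanning at 488 nm.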

First: CTGAACCCGTTATGGTGTACATAAAATAAGACACAG [XGTACX_site3484]
Second: ATTACATGCAATATATGTACGTAATATATATATATA [XGTACX_site2300]
The “gcPBM binding intensity (ln)” value of the first is lower: 9.6 for the first, 9.61 for the second.

Compared with “TGCATGCATTATCATAGTACATATAATGTTGTATAA [XGTACX_site2775]”, “TAATCTTTCGTACATGTACACACAGAAAAAAAAAAA [CACACA_site8798]” is higher in “gcPBM binding intensity (ln)” value: 9.5 for the first, 9.66 for the second.

Going from “ATTATTAAGTTTCACAAGAACATTGTTAACAATTTT [CACACA_negctrl_site1128]” to “TATTAAGTATTTTACGTACACACTTATAAATGTACA [CACACA_site3885]”, the “gcPBM binding intensity (ln)” value falls from 9.59 to 9.56.

Compared with “AATAATCATGATCAAAGTACTTATGAATACCAAAAA [XGTACX_site2572]”, “AAAAAAAAAAAGTACACACATACATATAAATATATA [CACACA_site1809]” is higher in “gcPBM binding intensity (ln)” value: 9.84 for the first, 9.86 for the second.

Going from AAAGACGCAAAATTGGTGCGCTGCTTTTAGCATTTT to “ACAGAATATTTAATTCAACACACATACATATTTATT [CACACA_site8734]”, the “gcPBM binding intensity (ln)” value rises from 9.58 to 9.96.

Going from “ATTTATATCCTTAAACGTACATTGTATTGTATTTTA [XGTACX_site6080]” to “AAAATTATTTTTATGTGTACTTATTTATTATTTATA [XGTACX_site6665]”, the “gcPBM binding intensity (ln)” value rises from 9.76 to 9.81.

First: TGATAACCTAATAATACACACACATGAATATATATA [CACACA_site8226]
Second: GTCGCCAAAAGGTGTACACATAATGCATTATCATAA [CACACA_site6112]
The “gcPBM binding intensity (ln)” value of the first is higher: 10 for the first, 9.78 for the second.

Compared with “TAAAAAAAATAGCATACACACATATATACATATATA [CACACA_site658]”, “ATTAAAAAATTATTCACACAAAATAAAAAAATGAAA [CACACA_site4918]” is lower in “gcPBM binding intensity (ln)” value: 10 for the first, 9.65 for the second.

First: TACACATAATATAATGCATGTGTGATGTATGTTTAA [TGCATGCA_site697]
Second: ATATTTAGGATTATCTGTACATAATATGTTTAATTA [XGTACX_site3426]
The “gcPBM binding intensity (ln)” value of the first is higher: 9.76 for the first, 9.6 for the second.

First: AAATATTTGGAGAAATGTACATATTATAAATATATT [XGTACX_site6885]
Second: CTAGGAAATTATATGGGTACTCATATTCATAAAAAA [XGTACX_site1846]
The “gcPBM binding intensity (ln)” value of the first is higher: 9.78 for the first, 9.41 for the second.

Compared with “AAAAAAAACGCACATACACACACACCCATATATATA [CACACA_site9118]”, AAAAAAAAAAAAAAGGTGCAAATAAATTAACCTTAT is lower in “gcPBM binding intensity (ln)” value: 10.4 for the first, 9.57 for the second.

Going from “TTTTATTTTTTCCGACGTACATCCATTATATATAAT [XGTACX_site4469]” to “AAATGTTAAAATGACAGTACATATATAAAAAAAAAA [XGTACX_site3936]”, the “gcPBM binding intensity (ln)” value falls from 9.78 to 9.77.

First: AAGAACAGAACGTACACACACATATATATATATATA [CACACA_site3457]
Second: AAAAAAAGAATGTGAACACACACATTGAATATAATT [CACACA_site8341]
The “gcPBM binding intensity (ln)” value of the first is higher: 10.3 for the first, 10 for the second.

Going from “AATTATTTACCCTATACACACAAAACCCACTAAAAA [CACACA_site4801]” to “TATAAATAAATACATACACACACATACATATATATA [CACACA_site9024]”, the “gcPBM binding intensity (ln)” value rises from 10.2 to 10.4.

Going from “AATCATATGAAAAATACATGCGCATGGATACCTTTA [TGCATGCA_site224]” to “TACTTATGTGCATACCTACACACTTACATATATATA [CACACA_site2975]”, the “gcPBM binding intensity (ln)” value rises from 9.86 to 10.1.

Going from “GATGATGTTTATTTGTGTACATATTAATACTTAATA [XGTACX_site1902]” to “TTTTCTTTTTTTTATTGTACTTATAAAAATAAATAA [XGTACX_site3498]”, the “gcPBM binding intensity (ln)” value falls from 9.86 to 9.42.

Compared with “ATAGGACATGTATCCAGTACATATTTAAAAAAAATA [XGTACX_site88]”, “GCATATATCAAATATCGTACATTTTTTAAATTAAAA [XGTACX_site3994]” is lower in “gcPBM binding intensity (ln)” value: 9.6 for the first, 9.33 for the second.

Going from “ATAAAATCAAAATATACACACAAGGGGGAAAATCAA [CACACA_site2809]” to “TTTGTAAGTCTTTGTTGTACTCAATAGAATGAAGAA [XGTACX_site8930]”, the “gcPBM binding intensity (ln)” value falls from 10 to 9.45.

Compared with “ATGAAAAAAAGACATGCATGTAAATATAAATTGCTT [TGCATGCA_site504]”, CTCATTTTGTTAATGGTGCAAAAAAAAAAAAAAAAA is lower in “gcPBM binding intensity (ln)” value: 10.2 for the first, 8.92 for the second.

Going from “CATTATAAGAGACACACACACATATATAAATATGTA [CACACA_site6621]” to “AGTAAGAGGCATTAAGCATGCATATTATTATAAGCA [TGCATGCA_site237]”, the “gcPBM binding intensity (ln)” value falls from 10.9 to 9.85.

Compared with “TATTTAAAACTATACACATGCATTATATAAAGATAT [TGCATGCA_site702]”, “TTTCATTTTTGAAGGTGTACTTAAAATTTATGTAAT [XGTACX_site6671]” is lower in “gcPBM binding intensity (ln)” value: 9.55 for the first, 9.31 for the second.

Going from “AAAATTTATTATCTATATAATAATATGAAACAAAAC [GTGCAC_negctrl_site731]” to “AAAAAAACATAAAATACACACAACCTTAAGAATGTA [CACACA_site3293]”, the “gcPBM binding intensity (ln)” value rises from 9.59 to 10.1.

In the case of “TTATAAAATATATATACATGCACAAAATTATAAGTA [TGCATGCA_site294]”, the “gcPBM binding intensity (ln)” value is reported as 9.83.
